Consider one molecule from patent US20260137759A1 (IMMUNITYBIO, published 2026).

For this experiment, the target named is T1, TGFβ Receptor II/IL-15RαSu fusion protein (human).
T1 construct: also called TGFβR/IL-15RαSu; TGFR/IL15RαSu
T1 chain: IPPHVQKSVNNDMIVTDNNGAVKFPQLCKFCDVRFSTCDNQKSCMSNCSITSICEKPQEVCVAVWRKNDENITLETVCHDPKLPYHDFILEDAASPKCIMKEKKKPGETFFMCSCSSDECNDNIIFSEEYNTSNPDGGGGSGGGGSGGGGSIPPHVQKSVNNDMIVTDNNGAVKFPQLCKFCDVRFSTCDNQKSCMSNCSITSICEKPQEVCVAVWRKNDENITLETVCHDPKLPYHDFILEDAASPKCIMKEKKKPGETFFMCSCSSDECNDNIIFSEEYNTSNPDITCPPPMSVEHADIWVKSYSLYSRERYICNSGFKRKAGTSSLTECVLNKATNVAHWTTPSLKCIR
The experiment is described as follows: co-expression in CHO-K1 cells, complex formation.

B1: TGFR/TF/IL15D8N fusion protein (other)
chain: IPPHVQKSVNNDMIVTDNNGAVKFPQLCKFCDVRFSTCDNQKSCMSNCSITSICEKPQEVCVAVWRKNDENITLETVCHDPKLPYHDFILEDAASPKCIMKEKKKPGETFFMCSCSSDECNDNIIFSEEYNTSNPDGGGGSGGGGSGGGGSIPPHVQKSVNNDMIVTDNNGAVKFPQLCKFCDVRFSTCDNQKSCMSNCSITSICEKPQEVCVAVWRKNDENITLETVCHDPKLPYHDFILEDAASPKCIMKEKKKPGETFFMCSCSSDECNDNIIFSEEYNTSNPDSGTTNTVAAYNLTWKSTNFKTILEWEPKPVNQVYTVQISTKSGDWKSKCFYTTDTECDLTDEIVKDVKQTYLARVFSYPAGNVESTGSAGEPLYENSPEFTPYLETNLGQPTIQSFEQVGTKVNVTVEDERTLVRRNNTFLSLRDVFGKDLIYTLYYWKSSSSGKKTAKTNTNEFLIDVDKGENYCFSVQAVIPSRTVNRKSTDSPVECMGQEKGEFRE[letters of about 120 residues with changes not shown]
notes: First chain of TGFRt15*-TGFRs (HCW9228)
Turning to B1, the binding result was “binds”.
